What was measured:
ParA2vc [1] = target: T1, ParA2vc (Vibrio cholerae, UniProt Q9KKJ2); assay: X-ray crystallography, […] Å; type: binding; conditions: co-crystallized with 5 mM ADP and 5 mM MgCl2; Mg in active site; 4 °C; two dimers per asymmetric unit
T1 construct: gene VC_A1115

ParA2vc [2] = target: T1, ParA2vc; assay: cryo-EM helical reconstruction, […] Å; type: binding; conditions: DNA-bound filament (sonicated salmon sperm DNA); about 4 mM ATPγS and MgCl2; 30 °C; active site with Mg

Row | SMILES | X-ray crystallography, 3.2 Å (ParA2vc [1]) | cryo-EM helical reconstruction, 4.5 Å (ParA2vc [2])
1 | Nc1ncnc2c1ncn2[C@@H]1O[C@H](COP(=O)(O)OP(=O)(O)O)[C@@H](O)[C@H]1O [ADP] | Ligand density was observed in the active site of all four molecules | 
2 | Nc1ncnc2c1ncn2[C@@H]1O[C@H](COP(=O)(O)OP(=O)(O)OP(O)(O)=S)[C@@H](O)[C@H]1O [ATPγS] |  | Density for the ATPγS and Mg molecules is also clearly delineated in the active site

— article PMC8397727, “The structure of the bacterial DNA segregation ATPase filament reveals the conformational plasticity of ParA upon DNA binding” (Nature Communications, 2021)
